The text below walks through data of the RNAGym collection of RNA variant scans (doi:10.7554/elife.90254).

The source gives no read counts; variants with many changes may rest on few reads.

To fix the notation:
B1: OR4K15 (parent)
chain: GUUAACGGUCAUAGGCCAUGGAAACUAGGAGCACCAUUUCGCUGCCAGUGAAGAAAUGAACAAAGAAAAUCUGGGCCAGGCAGGCAUCAAAAGAAAUAGUCUUGCGCUCAACCAGAAAGUCUGUAAUCAUUUUAAGGGUA

This series covers variants of B1. As to the kind of experiment: self-cleavage, relative activity (ratio to wild type); higher = more cleavage; in vitro, sequencing; the parent is a self-cleaving ribozyme.
As to A11G U19A U37C, the self-cleavage turned out to be 1.23.
Under A11U A92G A114U A140G stands 0.02; under A11G U70C A111G U124G, 0.02; under U12A U38C A51G A52G G106A U124C, 0.04.
Next, A11G G31A A36U: 1.21.
Under U12C A92G U108C A111U A116G stands 0.01.
Regarding A11U A36G U43C A59G A86U U87C U127A, the self-cleavage came out at 2.33.
Under A11G C42A U70A stands 0.4; under U12A A55G A126G, 1.08.
Next, A11U A54G A69G A114U: 0.27.
A11G G73U A135G U139A: the self-cleavage was determined as 0.21.
Regarding A11U A67G U102C U122C, the self-cleavage was found to be 0.88.
Under A11G U37C A91G stands 0.68.
For the variant U12G A23C A94G, the self-cleavage was determined as 0.55.
Next, A11U U122C U139C: 1.17.
Next, U12C A94G U132C: 1.86; U12A A86G A90G U108A: 0.04.
Take A11U A56G A91G: the self-cleavage was 0.51.
As for A11G A68G C105G, the self-cleavage was 0.12.
Under A11U U87C A129G stands 0.28; under A11U U72A A86G C107A, 0.02.
Under A11G U38A A51G A116U stands 0.95; under A11U A36U A66U A110G, 0.12.
Next, U12A U38G C42U U57C A63G: 0.19.
In the case of A11G G14A U102C U130C, the self-cleavage came to 0.82.
Take A11G U12C A24C C40U U120C: the self-cleavage came to 0.91.
For the variant U12C A23G U49A A52G A126G, the self-cleavage was 0.94.
As for A11G A86G A118G A126C U127A, the self-cleavage was 0.49.
Next, A11G C88A A140G: 1.4.
Turning to U12C A63C A69U U103C A111G, the self-cleavage was 0.03.
Next, U12C A33G A69G: 1.35; U12C A62G A129G: 1.46; A11U G79A A110U: 0.28.
Under U12C A33G A36G A68G A111G stands 0.02; under A11U U43C A54G A62G U70C A140G, 0.76; under A11G A78U A89C U124C, 0.12.
Next, A11G U43A A59U A114G: 0.8.
On to A11G U19C U43C A68G U133A, for which the self-cleavage was 0.81.
Next, U12C A82U U139A: 0.24; U12C U39C A68G A94G A110G: 0.16; A11G U100C U120C U132C: 2.11.
On to U12C A13G A33U A51G A54G U108C U122A, for which the self-cleavage was 0.
On to A11U A78U A98U, for which the self-cleavage worked out at 0.32.
Take A11G A91G A96G A125G: the self-cleavage was determined as 0.56.
Under A11U U19A A98G A126G stands 0.04; under A11G U38C U70C A94C U122C, 0.41.
On to A11U A47G A54G, for which the self-cleavage came to 0.31.
Under U12C A56G U100C U103C A116G A134G stands 1.23; under U12C A23G C45A A78U, 0.65; under U12C A67G A69G A91G A126G, 0.98.
Consider U12C U39A A68U, for which the self-cleavage was determined as 0.54.
Take A11U A24C U39C: the self-cleavage was determined as 0.91.
Next, U12C G44A A52G A82G: 0.5; U12C A55U A60U A64G U97C U108C U131A: 0.03.
Turning to A11G U12C A30G A95C, the self-cleavage is 0.97.
On to A11G U37C A86U, for which the self-cleavage was 1.05.
Next, U12C A60G U100C A111G: 0.12; A11G U43G A56G A68G A90C: 0.83.
Take A11U A69G G73A: the self-cleavage stood at 0.3.
Under A11G C16G A23G A56G stands 0.81; under U12A U57A A82C U103C, 0.1; under A11G A82U A95G, 0.37.
Next, U12C U57A A78G A89G: 0.29; A11G U87C U100A: 0.86; U12C A13G U102A A117G: 1.06.
Under A11G U97C A118G U120C A135U stands 0.06.
U12C G41A U57C A111G U122A: the self-cleavage turned out to be 0.01.
Turning to A11G U19G A60G, the self-cleavage came to 0.94.
Take A11G U49C A95G: the self-cleavage is 0.71.
As for A11U U19C A66G A135U, the self-cleavage worked out at 1.42.
Next, A11G A69U A117G: 2.31; A11U A51G A55G A110C: 0.07; A11G U127C U131C: 0.47.
A11G A66G A78G: the self-cleavage was found to be 0.2.
Under U12A U57C A111G stands 0.04; under A11G U108A U132A, 0.02; under A11U U49C A95G C121A, 2.96.
With U12C A22G U37C G83A, the self-cleavage is 0.82.
Take U12C A23U A27G A51U A62G C112U U130C: the self-cleavage was determined as 0.03.
Under A11U A30G A52G A59G U102A stands 1.56.
Under U12C A18G A78U stands 0.31; under U12C A95G A126G A140G, 0.68; under A11U G104A A140G, 0.01.
